Results published in the supplement of paper PMC8728848.
The list shows a part of the results.

What was measured:
Experiment in all cases: glycan array binding signal (z-score within array); higher = stronger binding
Details in all cases: glycan notation: IUPAC condensed, linker removed
Fuc(a1-2)[Gal(a1-3)]Gal = biological target: Fuc(a1-2)[Gal(a1-3)]Gal
In short: (§1)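 From the Consortium for Functional Glycomics database, 3228 arrays were curated, keeping only those whose protein sequence was available. Binding is given as a within-array Z-score averaged across arrays sharing a protein sequence and across linkers. Negative Z-scores can be read as non-binding.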

[1] = biological target: Fuc(a1-2)[Gal(a1-3)]Gal(b1-3)GlcNAc
In short: as §1

[2] = biological target: Fuc(a1-2)[Gal(a1-3)]Gal(b1-3)GlcNAc(b1-2)Man(a1-3)[Fuc(a1-2)[Gal(a1-3)]Gal(b1-3)GlcNAc(b1-2)Man(a1-6)]Man(b1-4)GlcNAc(b1-4)GlcNAc
In short: as §1

[3] = biological target: Fuc(a1-2)[Gal(a1-3)]Gal(b1-3)GlcNAc(b1-3)GalNAc
In short: as §1

[4] = biological target: Fuc(a1-2)[Gal(a1-3)]Gal(b1-4)Glc
In short: as §1

[5] = biological target: Fuc(a1-2)[Gal(a1-3)]Gal(b1-4)GlcNAc
In short: as §1

[6] = biological target: Fuc(a1-2)[Gal(a1-3)]Gal(b1-4)GlcNAc(b1-2)Man(a1-3)[Fuc(a1-2)[Gal(a1-3)]Gal(b1-4)GlcNAc(b1-2)Man(a1-6)]Man(b1-4)GlcNAc(b1-4)GlcNAc
In short: as §1

[7] = biological target: Fuc(a1-2)[Gal(a1-3)]Gal(b1-4)GlcNAc(b1-2)Man(a1-3)[Fuc(a1-2)[Gal(a1-3)]Gal(b1-4)GlcNAc(b1-2)Man(a1-6)]Man(b1-4)GlcNAc(b1-4)[Fuc(a1-6)]GlcNAc
In short: as §1

[8] = biological target: Fuc(a1-2)[Gal(a1-3)]Gal(b1-4)GlcNAc(b1-3)GalNAc
In short: as §1

[9] = biological target: Fuc(a1-2)[Gal(a1-3)]Gal(b1-4)[Fuc(a1-3)]Glc
In short: as §1

[10] = biological target: Fuc(a1-2)[Gal(a1-3)]Gal(b1-4)[Fuc(a1-3)]GlcNAc
In short: as §1

[11] = biological target: Fuc(a1-2)[Gal(a1-3)]Gal(b1-4)[Fuc(a1-3)]GlcNAc(b1-3)GalNAc
In short: as §1

[12] = biological target: Fuc(a1-2)[Gal(a1-4)]Gal(b1-4)GlcNAc
In short: as §1

[13] = biological target: Fuc(a1-2)[GalNAc(a1-3)]Gal
In short: as §1

[14] = biological target: Fuc(a1-2)[GalNAc(a1-3)]Gal(b1-3)GalNAc(a1-3)[Fuc(a1-2)]Gal(b1-4)GlcNAc
In short: as §1

[15] = biological target: Fuc(a1-2)[GalNAc(a1-3)]Gal(b1-3)GlcNAc
In short: as §1

[16] = biological target: Fuc(a1-2)[GalNAc(a1-3)]Gal(b1-3)GlcNAc(b1-2)Man(a1-3)[Fuc(a1-2)[GalNAc(a1-3)]Gal(b1-3)GlcNAc(b1-2)Man(a1-6)]Man(b1-4)GlcNAc(b1-4)GlcNAc
In short: as §1

[17] = biological target: Fuc(a1-2)[GalNAc(a1-3)]Gal(b1-3)GlcNAc(b1-3)GalNAc
In short: as §1

[18] = biological target: Fuc(a1-2)[GalNAc(a1-3)]Gal(b1-4)Glc
In short: as §1

[19] = biological target: Fuc(a1-2)[GalNAc(a1-3)]Gal(b1-4)GlcNAc
In short: as §1

[20] = biological target: Fuc(a1-2)[GalNAc(a1-3)]Gal(b1-4)GlcNAc(b1-2)Man(a1-3)[Fuc(a1-2)[GalNAc(a1-3)]Gal(b1-4)GlcNAc(b1-2)Man(a1-6)]Man(b1-4)GlcNAc(b1-4)GlcNAc
In short: as §1

[21] = biological target: Fuc(a1-2)[GalNAc(a1-3)]Gal(b1-4)GlcNAc(b1-3)Gal(b1-4)GlcNAc
In short: as §1

[22] = biological target: Fuc(a1-2)[GalNAc(a1-3)]Gal(b1-4)GlcNAc(b1-3)Gal(b1-4)GlcNAc(b1-3)Gal(b1-4)GlcNAc
In short: as §1

[23] = biological target: Fuc(a1-2)[GalNAc(a1-3)]Gal(b1-4)GlcNAc(b1-3)GalNAc
In short: as §1

[24] = biological target: Fuc(a1-2)[GalNAc(a1-3)]Gal(b1-4)[Fuc(a1-3)]GlcNAc
In short: as §1

[25] = biological target: Fuc(a1-2)[GalNAc(a1-3)]Gal(b1-4)[Fuc(a1-3)]GlcNAc(b1-3)GalNAc
In short: as §1

[26] = biological target: Fuc(a1-2)[GalNAc(a1-4)]Gal(b1-4)GlcNAc
In short: as §1

[27] = biological target: Fuc(a1-2)[GalNAc(b1-3)]Gal
In short: as §1

Fuc(a1-3)GlcNAc = biological target: Fuc(a1-3)GlcNAc
In short: as §1

[28] = biological target: Fuc(a1-3)[Gal(b1-4)]Glc6S
In short: as §1

[29] = biological target: Fuc(a1-3)[Gal(b1-4)]GlcNAc
In short: as §1

[30] = biological target: Fuc(a1-3)[Gal(b1-4)]GlcNAc(b1-2)Man(a1-3)[Fuc(a1-3)[Gal(b1-4)]GlcNAc(b1-2)Man(a1-6)]Man(b1-4)GlcNAc(b1-4)GlcNAc
In short: as §1

[31] = biological target: Fuc(a1-3)[Gal(b1-4)]GlcNAc(b1-2)Man(a1-3)[Fuc(a1-3)[Gal(b1-4)]GlcNAc(b1-2)Man(a1-6)]Man(b1-4)GlcNAc(b1-4)[Fuc(a1-6)]GlcNAc
In short: as §1

[32] = biological target: Fuc(a1-3)[Gal(b1-4)]GlcNAc(b1-3)Gal(b1-3)[Fuc(a1-4)]GlcNAc
In short: as §1

[33] = biological target: Fuc(a1-3)[Gal(b1-4)]GlcNAc(b1-3)GalNAc
In short: as §1

[34] = biological target: Fuc(a1-3)[Gal(b1-4)]GlcNAc(b1-4)Gal(b1-4)[Fuc(a1-3)]GlcNAc
In short: as §1

[35] = biological target: Fuc(a1-3)[Gal(b1-4)]GlcNAc(b1-4)Gal(b1-4)[Fuc(a1-3)]GlcNAc(b1-4)Gal(b1-4)[Fuc(a1-3)]GlcNAc
In short: as §1

[36] = biological target: Fuc(a1-3)[Gal(b1-4)]GlcNAc(b1-6)[Gal(b1-3)GlcNAc(b1-3)]Gal(b1-4)Glc
In short: as §1

B1: SEX4 (Arabidopsis thaliana), Q944A8 (protein)
chain: TQAMGAVLTYRHELGMNYNFIRPDLIVGSCLQTPEDVDKLRKIGVKTIFCLQQDPDLEYFGVDISSIQAYAKKYSDIQHIRCEIRDFDAFDLRMRLPAVVGTLYKAVKRNGGVTYVHCTAGMGRAPAVALTYMFWVQGYKLMEAHKLLMSKRSCFPKLDAIRNATIDILTGLKRKTVTLTLKDKGFSRVEISGLDIGWGQRIPLTLGKGTGFWILKRELPEGQFEYKYIIDGEWTHNEAEPFIGPNKDGHTNNYAKVVDDPTSVDGTTRERLSSEDPELLEEERSKLIQFLETCSEAEV
- glycan array binding signal (z-score) (Fuc(a1-2)[Gal(a1-3)]Gal): -0.521
- glycan array binding signal (z-score) [1]: -0.101
- glycan array binding signal (z-score) [2]: -0.155
- glycan array binding signal (z-score) [3]: -0.268
- glycan array binding signal (z-score) [4]: -0.313
- glycan array binding signal (z-score) [5]: -0.424
- glycan array binding signal (z-score) [6]: 0.624
- glycan array binding signal (z-score) [7]: -0.515
- glycan array binding signal (z-score) [8]: -0.37
- glycan array binding signal (z-score) [9]: -0.413
- glycan array binding signal (z-score) [10]: 0.041
- glycan array binding signal (z-score) [11]: 0.171
- glycan array binding signal (z-score) [12]: -0.434
- glycan array binding signal (z-score) [13]: -0.519
- glycan array binding signal (z-score) [14]: 0.238
- glycan array binding signal (z-score) [15]: -0.556
- glycan array binding signal (z-score) [16]: 1.05
- glycan array binding signal (z-score) [17]: 1.92
- glycan array binding signal (z-score) [18]: -0.33
- glycan array binding signal (z-score) [19]: -0.274
- glycan array binding signal (z-score) [20]: -0.168
- glycan array binding signal (z-score) [21]: 0.082
- glycan array binding signal (z-score) [22]: 1.55
- glycan array binding signal (z-score) [23]: -0.456
- glycan array binding signal (z-score) [24]: -0.053
- glycan array binding signal (z-score) [25]: 1.24
- glycan array binding signal (z-score) [26]: -0.536
- glycan array binding signal (z-score) [27]: -0.555
- glycan array binding signal (z-score) (Fuc(a1-3)GlcNAc): -0.55
- glycan array binding signal (z-score) [28]: -0.29
- glycan array binding signal (z-score) [29]: -0.452
- glycan array binding signal (z-score) [30]: -0.262
- glycan array binding signal (z-score) [31]: 0.038
- glycan array binding signal (z-score) [32]: 0.278
- glycan array binding signal (z-score) [33]: 2.34
- glycan array binding signal (z-score) [34]: -0.095
- glycan array binding signal (z-score) [35]: -0.11
- glycan array binding signal (z-score) [36]: -0.48
